# According to the supplement of paper PMC10037445:
# Values joined by “and” are separate entries in the source; they are usually repeats but may differ in a detail not shown here. Equal values may be shown once. The full ranking holds about 2,900 compounds; the median of “IRF Lucia reporter activity, fold change vs agonist alone” is about 0.9, and the highest 2% start at about 2.8. This is one part of the list.
# What was measured:
# RAW-Dual [1] = assay: IRF Lucia reporter activity, fold change vs agonist alone; cytotoxicity flag (confluency mask): not cytotoxic; higher = enhanced IRF activity
# How it was run: (§1)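 Cytotoxic wells were those whose IncuCyte confluency was below 70% of agonist controls in both mask sets. The cells were RAW-Dual macrophages at 50,000 cells/well in DMEM on 384-well plates, dosed with 50 nL of library stock by pin tool, stimulated with a PRR agonist 1 h later, and kept at 37 °C, 5% CO2 for 20 hours. IRF and NF-κB reporter activity, as fold change over agonist-alone wells, came from supernatant read by QuantiLuc luminescence and QuantiBlue absorbance, respectively.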
# RAW-Dual [2] = assay: IRF Lucia reporter activity, fold change vs agonist alone; higher = enhanced IRF activity; conditions: agonist: MPLA (TLR4) […]
# How it was run: as §1
# RAW-Dual [3] = assay: IRF Lucia reporter activity, fold change vs agonist alone; cytotoxicity flag (confluency mask): cytotoxic (confluency <70% of control); higher = enhanced IRF activity
# How it was run: as §1
# [4] = agonist: 3'3'-cGAMP (STING) 10 ug/mL
# [5] = library stock concentration (final ~1000-fold dilution): 10 mM, cytotoxicity flag (confluency mask): not cytotoxic
# [6] = library stock concentration (final ~1000-fold dilution): 10 mM, cytotoxicity flag (confluency mask): cytotoxic (confluency <70% of control)
compound,measurement,setting,value
CC1Cc2c([nH]c3ccccc23)C(c2c(F)cc(/C=C/C(=O)O)cc2F)N1CC(C)(C)F (stereo not given) (library stock concentration (final ~1000-fold dilution): 10 mM),IRF Lucia reporter activity,RAW-Dual [1]; [4],1.14
same,IRF Lucia reporter activity,RAW-Dual [1]; agonist: LPS (TLR4) 0.1 ug/mL,1.23
COc1cc(C=CC(=O)CC(=O)C=Cc2ccc(O)c(OC)c2)ccc1O (library stock concentration (final ~1000-fold dilution): 100 mM),IRF Lucia reporter activity,RAW-Dual [1]; [4],0.00934
same,IRF Lucia reporter activity,RAW-Dual [1]; agonist: LPS (TLR4) 0.1 ug/mL,0.0106
COc1ccc(CN(CCN(C)C)c2ncccn2)cc1 (library stock concentration (final ~1000-fold dilution): 10 mM),IRF Lucia reporter activity,RAW-Dual [1]; [4],0.979
same,IRF Lucia reporter activity,RAW-Dual [1]; agonist: LPS (TLR4) 0.1 ug/mL,0.549
COc1ccc(CN(CCN(C)C)c2ncccn2)cc1,IRF Lucia reporter activity,RAW-Dual [2]; [5],1.05
Cc1ccc(Sc2ccccc2N2CCNCC2)c(C)c1 (library stock concentration (final ~1000-fold dilution): 10 mM),IRF Lucia reporter activity,RAW-Dual [3]; [4],0.317
same,IRF Lucia reporter activity,RAW-Dual [3]; agonist: LPS (TLR4) 0.1 ug/mL,0.0341
Cc1ccc(Sc2ccccc2N2CCNCC2)c(C)c1,IRF Lucia reporter activity,RAW-Dual [2]; [6],0.167
CS(=O)(=O)O.Cn1cc(C2=C(c3cn(CCCSC(=N)N)c4ccccc34)C(=O)NC2=O)c2ccccc21 (library stock concentration (final ~1000-fold dilution): 10 mM),IRF Lucia reporter activity,RAW-Dual [3]; [4],0.01
same,IRF Lucia reporter activity,RAW-Dual [3]; agonist: LPS (TLR4) 0.1 ug/mL,0.0128
CS(=O)(=O)O.Cn1cc(C2=C(c3cn(CCCSC(=N)N)c4ccccc34)C(=O)NC2=O)c2ccccc21,IRF Lucia reporter activity,RAW-Dual [2]; [6],0.0145
CN1CCC(CNc2ccc3ncc(-c4cccc(OC(F)(F)F)c4)n3n2)CC1 (library stock concentration (final ~1000-fold dilution): 10 mM),IRF Lucia reporter activity,RAW-Dual [1]; [4],1.03
same,IRF Lucia reporter activity,RAW-Dual [1]; agonist: LPS (TLR4) 0.1 ug/mL,0.089
CN1CCC(CNc2ccc3ncc(-c4cccc(OC(F)(F)F)c4)n3n2)CC1,IRF Lucia reporter activity,RAW-Dual [2]; [5],1.07
COc1cccc2c1C(=O)c1c(O)c3c(c(O)c1C2=O)CC(O)(C(=O)CO)CC3OC1CC(N)C(OC2CCCCO2)C(C)O1 (stereo not given) (library stock concentration (final ~1000-fold dilution): 10 mM),IRF Lucia reporter activity,RAW-Dual [1]; [4],0.0113
same,IRF Lucia reporter activity,RAW-Dual [1]; agonist: LPS (TLR4) 0.1 ug/mL,0.0162
COc1cccc2c1C(=O)c1c(O)c3c(c(O)c1C2=O)CC(O)(C(=O)CO)CC3OC1CC(N)C(OC2CCCCO2)C(C)O1 (stereo not given),IRF Lucia reporter activity,RAW-Dual [2]; [5],0.0196
N#C/C(C(=O)c1ccc(Cl)cc1Cl)=C1\NC(=O)c2ccccc2N1 (library stock concentration (final ~1000-fold dilution): 10 mM),IRF Lucia reporter activity,RAW-Dual [1]; [4],0.947
same,IRF Lucia reporter activity,RAW-Dual [1]; agonist: LPS (TLR4) 0.1 ug/mL,1.16
Cc1ccc(/C(=C\CN2CCCC2)c2ccccn2)cc1.Cl.O (library stock concentration (final ~1000-fold dilution): 10 mM),IRF Lucia reporter activity,RAW-Dual [1]; [4],0.877
same,IRF Lucia reporter activity,RAW-Dual [1]; agonist: LPS (TLR4) 0.1 ug/mL,0.728
Cc1ccc(/C(=C\CN2CCCC2)c2ccccn2)cc1.Cl.O,IRF Lucia reporter activity,RAW-Dual [2]; [5],1.09
NS(=O)(=O)c1ccc(NC(=O)Nc2ccc(F)cc2)cc1,IRF Lucia reporter activity,RAW-Dual [2]; [5],1.02
NS(=O)(=O)c1ccc(NC(=O)Nc2ccc(F)cc2)cc1 (library stock concentration (final ~1000-fold dilution): 10 mM),IRF Lucia reporter activity,RAW-Dual [1]; [4],0.869
same,IRF Lucia reporter activity,RAW-Dual [1]; agonist: LPS (TLR4) 0.1 ug/mL,0.995
CC(Cn1cnc2c(N)ncnc21)OCP(=O)(O)O (stereo not given) (library stock concentration (final ~1000-fold dilution): 10 mM),IRF Lucia reporter activity,RAW-Dual [1]; [4],1
same,IRF Lucia reporter activity,RAW-Dual [1]; agonist: LPS (TLR4) 0.1 ug/mL,1
CC(Cn1cnc2c(N)ncnc21)OCP(=O)(O)O (stereo not given),IRF Lucia reporter activity,RAW-Dual [2]; [5],1.05
O=C(NCCCNc1nc(Nc2cccc(NC(=O)N3CCCC3)c2)ncc1I)c1cccs1,IRF Lucia reporter activity,RAW-Dual [2]; [6],0.0149
O=C(NCCCNc1nc(Nc2cccc(NC(=O)N3CCCC3)c2)ncc1I)c1cccs1 (library stock concentration (final ~1000-fold dilution): 10 mM),IRF Lucia reporter activity,RAW-Dual [3]; [4],0.00803 and 0.0152
same,IRF Lucia reporter activity,RAW-Dual [3]; agonist: LPS (TLR4) 0.1 ug/mL,0.0198 and 0.0131
Cc1ccccc1C(=O)Nc1ccc(C(=O)N2CCCC(N(C)C)c3ccccc32)cc1 (stereo not given) (library stock concentration (final ~1000-fold dilution): 2 mM),IRF Lucia reporter activity,RAW-Dual [1]; [4],1.17
same,IRF Lucia reporter activity,RAW-Dual [1]; agonist: LPS (TLR4) 0.1 ug/mL,0.925
Cc1ccccc1C(=O)Nc1ccc(C(=O)N2CCCC(N(C)C)c3ccccc32)cc1 (stereo not given),IRF Lucia reporter activity,"RAW-Dual [2]; library stock concentration (final ~1000-fold dilution): 2 mM, cytotoxicity flag (confluency mask): not cytotoxic",1.18
Cc1ccc(C)c(N/C=C/C(=O)c2ccccc2)c1 (library stock concentration (final ~1000-fold dilution): 10 mM),IRF Lucia reporter activity,RAW-Dual [1]; [4],0.732
same,IRF Lucia reporter activity,RAW-Dual [1]; agonist: LPS (TLR4) 0.1 ug/mL,1.42
CC(=O)N1CCCC1C(=O)NC(Cc1c[nH]cn1)C(=O)NC(CO)C(=O)NC(CS)C(=O)NC(CC(N)=O)C(N)=O (stereo not given) (library stock concentration (final ~1000-fold dilution): 10 mM water),IRF Lucia reporter activity,RAW-Dual [1]; [4],1.54
same,IRF Lucia reporter activity,RAW-Dual [1]; agonist: LPS (TLR4) 0.1 ug/mL,1.03
CC(C)NC(=N)NC(=N)Nc1ccc(Cl)cc1 (library stock concentration (final ~1000-fold dilution): 10 mM),IRF Lucia reporter activity,RAW-Dual [1]; [4],1.04
same,IRF Lucia reporter activity,RAW-Dual [1]; agonist: LPS (TLR4) 0.1 ug/mL,1.54
CC(C)NC(=N)NC(=N)Nc1ccc(Cl)cc1,IRF Lucia reporter activity,RAW-Dual [2]; [5],1.34
CC(C)n1cnc2c(NCCc3ccc(O)cc3)nc(-c3csc4ccccc34)nc21 (library stock concentration (final ~1000-fold dilution): 10 mM),IRF Lucia reporter activity,RAW-Dual [1]; [4],0.24
same,IRF Lucia reporter activity,RAW-Dual [1]; agonist: LPS (TLR4) 0.1 ug/mL,0.622
